Measurements reported in patent publication US20260258125A1.

Biological target: antigen of the anti-CEACAM5/6 antibodies on HPAC cells
Experiment: cell-based or functional assay

Internalization of pHAb-dye-labelled antibody, MFI (37° C.-4° C.)/DAR: 91000
B1: PR303561 (Tusamitamab) (antibody, human IgG1, kappa)
heavy: EVQLQESGPGLVKPGGSLSLSCAASGFVFSSYDMSWVRQTPERGLEWVAYISSGGGITYAPSTVKGRFTVSRDNAKNTLYLQMNSLTSEDTAVYYCAAHYFGSSGPFAYWGQGTLVTVSS[letters of human IgG1 constant region omitted]
light: DIQMTQSPASLSASVGDRVTITCRASENIFSYLAWYQQKPGKSPKLLVYNTRTLAEGVPSRFSGSGSGTDFSLTISSLQPEDFATYYCQHHYGTPFTFGSGTKLEIKRTVAAPSVFIFPPSDEQLKSGTASVVCLLNNFYPREAKVQWKVDNALQSGNSQESVTEQDSKDSTYSLSSTLTLSKADYEKHKVYACEVTHQGLSSPVTKSFNRGEC
